From PubChem BioAssay AID463254 (National Center for Advancing Translational Sciences (NCATS), 2010)
Hit rate of the full screen: of about 330,000 compounds, about 40 (0.01%) were called active. Calls follow the shape of the dose curve; as a rule, active = well fitted inhibition curve with a large enough effect; inconclusive = small, poorly fitted or top-dose-only effect, or effect the other way; inactive = flat fitted curve, though single readings scatter. The inconclusive results got no clear call from the source. Where the call is inconclusive, the potency comes from a doubtful curve fit.

The compounds below were run against Ubiquitin carboxyl-terminal hydrolase 2 (Homo sapiens) (UniProt O75604) (assay: qHTS Assay for Inhibitors of Ubiquitin-specific Protease USP2a Using CHOP2 as the Reporter). Details: USP2 core, Ub-CHOP2 coupled fluorogenic reporter, 485/531; series mostly up to 38.3 µM.
Chain of UniProt O75604 (O75604 whole entry, looked up): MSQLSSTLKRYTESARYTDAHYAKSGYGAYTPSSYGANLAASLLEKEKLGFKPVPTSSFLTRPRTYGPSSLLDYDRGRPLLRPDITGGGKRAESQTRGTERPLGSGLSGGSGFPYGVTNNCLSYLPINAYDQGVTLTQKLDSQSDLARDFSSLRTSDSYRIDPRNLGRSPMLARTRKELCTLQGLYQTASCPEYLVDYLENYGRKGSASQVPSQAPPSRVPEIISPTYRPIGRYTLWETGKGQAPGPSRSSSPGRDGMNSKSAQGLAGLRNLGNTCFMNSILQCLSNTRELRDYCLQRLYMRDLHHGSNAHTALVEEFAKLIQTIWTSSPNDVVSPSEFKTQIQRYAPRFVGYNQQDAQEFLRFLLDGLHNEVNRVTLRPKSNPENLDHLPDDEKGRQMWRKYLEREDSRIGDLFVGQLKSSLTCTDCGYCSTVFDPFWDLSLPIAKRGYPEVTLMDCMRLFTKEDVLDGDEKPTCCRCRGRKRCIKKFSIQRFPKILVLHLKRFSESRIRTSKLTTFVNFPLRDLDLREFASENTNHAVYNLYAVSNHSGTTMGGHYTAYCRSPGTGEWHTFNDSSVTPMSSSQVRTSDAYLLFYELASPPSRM
Text: NIH Molecular Libraries Screening Centers Network [MLSCN] NIH Chemical Genomics Center [NCGC] MLSCN Grant: XO1-MH079852-01 PI Name: Nicholson, Ben. Progenra Inc, Malvern, PA NCGC Assay Overview: Homeostasis of cellular proteins is maintained through a combination of synthesis and degradation. The pathway that accounts for the majority of protein degradation is the ubiquitin-proteasomal pathway. Ubiquitin (Ub) is highly conserved in all cells and the generation of a multi-Ub chain typically targets proteins for degradation by the proteasome. However, ubiquitination is highly reversible and dynamic. […] Thus, this coupled assay gives a fluorescent read-out at excitation/emission wavelengths of 485/531. […]
NCGC Assay Protocol Summary: The assay buffer, prepared fresh at the day of the assay, contains 20mM Tris-HCl pH 8.0, 2mM CaCl2, 2mM beta-Mercaptoethanol, 0.05% CHAPS. […] Plates were read after 60min RT incubation on a ViewLux (Perkin Elmer) plate reader using the following wavelengths Ex 485nm /Em 531nm. […] Concentration-response curves were fitted to the normalized data and the concentration-response curves were then classified based on curve quality (r2), response magnitude and degree of measured activity. The time zero reading was used to flag fluorescence artifacts. […]
Potency is read from the fitted curve at half-maximal effect; tags tell the direction and shape of the fitted curve or compound fluorescence and quenching.

SMILES | Potency
O=C(O)COc1ccccc1/C=N/NC(=O)CSc1nnc(SCc2cccc3ccccc23)s1 | inconclusive: 316 nM [fluorescent, partial curve, poor fit]
